# In PMC4336329 (PLoS ONE, 2015):
# Hit rate of the full screen: of about 310,000 compounds, about 14,000 (4.5%) showed an effect of 50% or more. Effects have a minus sign here. The list shows a part of the results.
# Molecular target: human ether-à-go-go-related gene (hERG) potassium channel (human, UniProt Q12809)
# Assay: primary screen, population patch clamp on CHO cells stably expressing hERG
# 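Also: peak tail current of the secondary pulse compared with the same well before compound.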
# Sequence of human ether-à-go-go-related gene (hERG) potassium channel (Q12809 whole entry, looked up): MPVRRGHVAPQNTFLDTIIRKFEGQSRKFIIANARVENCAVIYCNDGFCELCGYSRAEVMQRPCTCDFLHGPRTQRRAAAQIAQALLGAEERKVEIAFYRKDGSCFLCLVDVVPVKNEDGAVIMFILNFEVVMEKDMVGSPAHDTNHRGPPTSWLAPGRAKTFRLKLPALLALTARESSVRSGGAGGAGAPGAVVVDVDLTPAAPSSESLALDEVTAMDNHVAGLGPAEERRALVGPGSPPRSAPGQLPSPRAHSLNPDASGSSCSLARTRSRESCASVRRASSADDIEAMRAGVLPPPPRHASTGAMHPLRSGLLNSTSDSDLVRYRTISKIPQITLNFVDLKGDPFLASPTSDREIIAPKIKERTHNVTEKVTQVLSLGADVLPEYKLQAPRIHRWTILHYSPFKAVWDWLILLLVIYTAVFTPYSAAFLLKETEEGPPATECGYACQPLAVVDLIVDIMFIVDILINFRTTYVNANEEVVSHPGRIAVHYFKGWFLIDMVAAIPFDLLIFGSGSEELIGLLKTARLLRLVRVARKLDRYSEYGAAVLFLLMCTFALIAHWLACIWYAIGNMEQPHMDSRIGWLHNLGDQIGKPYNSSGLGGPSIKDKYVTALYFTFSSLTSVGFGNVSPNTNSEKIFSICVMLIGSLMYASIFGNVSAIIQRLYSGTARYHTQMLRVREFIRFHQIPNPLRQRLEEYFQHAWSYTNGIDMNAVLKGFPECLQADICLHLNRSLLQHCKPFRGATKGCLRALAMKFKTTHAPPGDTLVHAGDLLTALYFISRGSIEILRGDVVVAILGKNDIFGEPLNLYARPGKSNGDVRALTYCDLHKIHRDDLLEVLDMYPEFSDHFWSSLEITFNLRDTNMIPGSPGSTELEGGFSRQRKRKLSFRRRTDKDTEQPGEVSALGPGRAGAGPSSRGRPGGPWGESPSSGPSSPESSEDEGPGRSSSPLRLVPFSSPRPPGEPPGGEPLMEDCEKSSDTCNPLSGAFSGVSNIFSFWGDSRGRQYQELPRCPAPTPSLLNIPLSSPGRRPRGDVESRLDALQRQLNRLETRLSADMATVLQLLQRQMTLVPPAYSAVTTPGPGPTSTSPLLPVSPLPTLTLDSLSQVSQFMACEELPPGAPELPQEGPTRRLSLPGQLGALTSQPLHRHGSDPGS
row,Compound,"hERG current change (%, negative = inhibition) at 10uM [%]"
1,O=C(COC(=O)c1ccco1)NCc1ccccc1Cl,-7.78
2,CCC1Oc2ccc(C)cc2N(CC(=O)NCc2cc(OC)ccc2OC)C1=O (stereo not drawn),4.61
3,COc1ccc(/C=N/Nc2nc(=O)[nH]nc2C)cc1[N+](=O)[O-],8.39
4,COc1ccc(CCN(CC(=O)NCc2ccc(F)cc2)C(=O)c2snc(C(N)=O)c2N)cc1OC,-26.4
5,COc1ccc(-c2cc(C(F)(F)F)n3nc(C(=O)N(C)Cc4ccccc4)cc3n2)cc1OC,-11.5
6,Cl.O=C(CN1CCOCC1)Nc1ccc(OC(F)(F)F)cc1,-8.1
7,CCc1cc(C(=O)N2CCCc3ccccc32)sc1C,5.61
8,COc1ccc(Nc2ncnc3ccc(C)cc23)cc1,-3.17
9,Cc1nc2cc(-c3cccc(F)c3)nn2c(C)c1CCC(=O)NC(C)c1ccc2c(c1)OCCO2 (stereo not drawn),-44.6
10,Cc1cccc(-n2c(SCc3ccc(C#N)cc3)nnc2-c2c[nH]c3ccccc23)c1,12.1
11,CCOC(=O)N1CCC(NC(=O)c2ccc3c(c2)N=C(C)c2ccccc2S3)CC1,-9.41
12,Cc1cc(NC(=O)CSCC(=O)N(C)Cc2cccc(Cl)c2)no1,-6.09
13,CC(C)c1c(C#N)c(N)nc(SCC(=O)c2cc3ccccc3oc2=O)c1C#N,6.19
14,Cc1ccc(S(=O)(=O)c2nc(S(=O)(=O)CCO)sc2N2CCOCC2)cc1,7.88
15,COc1ccc(CCN2C(=O)NC(NS(=O)(=O)c3ccc(NC(C)=O)cc3)(C(F)(F)F)C2=O)cc1OC (stereo not drawn),-5.28
16,CCc1ccc(N2CC(C(=O)NCc3ccc4c(c3)OCO4)CC2=O)cc1 (stereo not drawn),-9.87
17,Cc1ccccc1NC(=O)c1ccc(C)c(S(=O)(=O)Nc2cccnc2)c1,1.76
18,CC(=O)c1cccc(NS(=O)(=O)c2c(C)noc2C)c1,12
19,Cc1ccc(-n2c(SCC(=O)N/N=C/c3c(C)nn(-c4ccccc4)c3C)nc3ccccc3c2=O)cc1,-7.33
20,COc1cccc(OCC(=O)Nc2cc(NC(=O)COc3cccc(OC)c3)cc(C(=O)O)c2)c1,17
21,CN(C(=O)CSc1nnnn1-c1ccc(O)cc1)C1CCS(=O)(=O)C1 (stereo not drawn),14.8
22,CCCCNC(=O)N1CCN(c2ncccn2)CC1,3.43

row,Compound,"hERG current change (%, negative = inhibition) at 10uM [%]"
1,CCc1ccc(N2C(=O)NC(=O)/C(=C\c3cc(C)n(-c4cc(C(=O)O)cc(C(=O)O)c4)c3C)C2=O)cc1,14.6
2,CCOc1ccc2nc(NC(NC(C)=O)(C(=O)OC)C(F)(F)F)sc2c1 (stereo not drawn),-13.2
3,Cc1ccsc1/C=C/c1ccc2cccc(O)c2n1,9.25
4,N=c1oc2cc(O)ccc2cc1C(=O)Nc1ccc(Cl)cc1,20.2
5,CCCNC(=O)NC(=O)COC(=O)/C=C/c1cc(Br)ccc1F,-3.46
6,CCC(=O)Nc1nc(-c2ccccc2)nc(SC)c1C(C)=O,9.52
7,O=C(Nc1ccccc1)O/N=C/c1ccc(F)cc1,-28.6
8,COc1ccc(S(=O)(=O)NCC2CCCN(Cc3ccc(C)o3)C2)cc1 (stereo not drawn),-25.5
9,Cc1ccc2nc(SCC(=O)N3CCN(c4ccccc4)CC3)nc(=O)n2c1,-47.5
10,CC(C)Cc1nn2c(=O)cc(CSCC(=O)Nc3ccccc3F)nc2s1,-19.2
11,COC(=O)c1ccc(-n2c(C)cc(C(=O)CSc3ccc(NC(C)=O)cc3)c2C)cc1,9.5
12,CCC12CN3CCN(CC(C3)/C1=N\NC(=O)Nc1ccccc1)C2,-10.4
13,Cc1cc(N2CCOCC2)n2cc(-c3ccccc3)nc2n1,-50.1
14,COc1ccccc1C(=O)NCCC(=O)N1CCN(c2cccc(C(F)(F)F)c2)CC1,-21.7
15,COC(=O)C1=C(C)N(c2ccc(C)c(C)c2)/C(=C/c2cccs2)C1=O,-17.7
16,COc1ccc(S(=O)(=O)N2CCN(c3ncccn3)CC2)cc1[N+](=O)[O-],-14
17,O=C(NC1=NCCS1)C1CC(=O)N(c2ccccc2)C1 (stereo not drawn),5.57
18,Cn1cc2cccc([N+](=O)[O-])c2n1,2.69
19,CCOc1ccc(/C=N/NC(=S)NC2CC3CCC2C3)cc1 (stereo not drawn),8.01
20,CCOC(=O)c1nc(C)sc1-c1ccnn1S(=O)(=O)c1ccc(C)cc1,-33.1
21,Cc1ccc(CCNC(=O)CCNS(=O)(=O)c2ccc3c(c2)c(=O)n(C)c(=O)n3C)cc1,9.8
22,CCc1nc(SCc2ccc(F)cc2)[nH]c(=O)c1C#N,17.8

row,Compound,"hERG current change (%, negative = inhibition) at 10uM [%]"
1,CC(C)(C)NC(=O)c1sccc1C(=O)O,11.3
2,Cc1cccc(-n2nc3c(c2NC(=O)c2ccco2)CS(=O)C3)c1C (stereo not drawn),7.5
3,CCCS(=O)(=O)N1CCCC(C(=O)NCCCN(C)c2ccccc2)C1 (stereo not drawn),5.82
4,CC(=O)c1ccc(-n2cc(C#N)c(=O)[nH]c2=O)cc1,18.9
5,O=[N+]([O-])c1cccc(C2N3CCCN23)c1 (stereo not drawn),12.3
6,COCc1nc2ccccc2n1Cc1ccccc1Br,-16.7
7,Cc1cc(C(=O)CSc2nnc(-c3cccnc3)n2-c2ccccc2F)c(C)n1CC1CCCO1 (stereo not drawn),-16.7
8,CC(=O)NCc1cc(-c2ccc(Cl)cc2)no1,-4.31
9,COc1ccc(C(=O)NC(=S)Nc2ccccc2N2CCOCC2)cc1[N+](=O)[O-],2.73
10,C[C@@]12C(=O)N(CC3CC3)CC(=O)N1[C@H](C1CC1)[C@@H]1C(=O)N(c3ccccc3)C(=O)[C@@H]12,-11.1
11,O=C(COc1ccc(S(=O)(=O)NC2CCCCC2)cc1Cl)N1CCN(c2ccccc2)CC1,-13.8
12,Cc1cc(N(C)N)nc(NC(=O)NS(=O)(=O)c2ccccc2Cl)n1,7.58
13,N#C/C(=C\c1ccncc1)c1nc2c(s1)CCCC2,-3.44
14,CCCOc1ccc(CC(=O)NCC2(c3ccccc3)CCOCC2)cc1OC,-4.73
15,COc1cc(SC)ccc1C(=O)Nc1c(C)cccc1C,-18.3
16,CN(C)C(=O)CSc1nc2ccccc2c(=O)[nH]1,22
17,O=C(CCNS(=O)(=O)c1ccccc1)OCc1nc2ccsc2c(=O)[nH]1,-27.2
18,Cc1ccc(-n2c(C)cc(/C=N/NC(=O)c3ccncc3)c2C)cc1,-9.86
19,Cc1cc(C)c(OCC(=O)N2CC=C(c3ccccc3)CC2)c(C)c1,7.93
20,CC(C)c1ccc(NC(=O)C2CC2c2ccccc2)cc1 (stereo not drawn),2.78
21,Cc1cc(C(=O)NC2CCCc3c2cnn3-c2ccc(C)c(C)c2)no1 (stereo not drawn),-42.9
22,O=C(CSc1ccc2nnc(-c3ccccn3)n2n1)Nc1cccc(F)c1,-40.6

row,Compound,"hERG current change (%, negative = inhibition) at 10uM [%]"
1,Cc1cc(C)n2nc(C(=O)N3CCCC(Nc4ccc(C(C)C)cc4)C3)cc2n1 (stereo not drawn),-3.37
2,COc1cccc(OC)c1CNC(=O)C1CCC(=O)N(CC2CCCCC2)C1 (stereo not drawn),-2.94
3,NC(=O)c1ccc(NC(=O)CCCNC(=O)c2ccc(Cl)cc2)cc1,11.9
4,Cl.Clc1cccc2c3c([nH]c12)CCNC3,9.81
5,COc1cccc(NC(=O)C2CCN(S(=O)(=O)c3ccccc3)CC2)c1,5.45
6,Cc1cc(C)cc(NC(=O)OCCN2CCN(Cc3ccccc3)CCC2=O)c1,-23.9
7,CCOc1ccc(CCNC(=O)c2cccc(S(=O)(=O)N3CCN(C(C)=O)CC3)c2)cc1OCC,-8.25
8,CCN1CCCC1CNC(=O)CCc1nc(-c2ccc(C)cc2)no1 (stereo not drawn),-22.4
9,CCCc1ncc(C(=O)c2ccc(OC)cc2)n1C,5.24
10,Cc1cc(Cl)c2oc(C(=O)N(C)CCCCN3CCOCC3)c(C)c2c1,-46
11,CNC(=O)c1sccc1SCc1ccc(Cl)cc1Cl,-15.1
12,CCCCn1c(N)c(N(CC(C)C)C(=O)c2ccc([N+](=O)[O-])o2)c(=O)[nH]c1=O,14.7
13,O=c1oc2c(CN3CCCCC3)c(O)ccc2c2c1CCCC2,-1.56
14,CCCC(=O)Nc1ccc(Cl)c(NC(=O)c2cccc(OC)c2)c1,-27.8
15,Cc1c(C(=O)OC/C(O)=C(\C#N)c2nc3ccccc3[nH]2)oc2ccccc12,0.156
16,O=C(c1ccco1)N1CCN(C(c2ccccc2Cl)c2nnnn2Cc2cccs2)CC1 (stereo not drawn),-56.2
17,CCOC(=O)c1cccc(NC(=O)Cn2cnc3c2c(=O)n(C)c(=O)n3C)c1,-47.3
18,C[n+]1cc[nH]c1SCC(=O)c1ccc(Cl)cc1.[Br-],3.49
19,O=C(NCc1ccc(F)cc1)Nc1cccc([N+](=O)[O-])c1,-6.9
20,Cc1cc(C)n(-c2nnc(C)n2/N=C/c2cc(Br)ccc2OCc2ccccc2)n1,-2.83
21,COc1ccc2cc(C(=O)N(C)Cc3ccccc3)[nH]c2c1,21
